# The whole screen tested about 50,000 compounds, of which about 800 (1.6%) showed an effect of 50% or more. The list shows a part of the results.
# Biological target: Bcl-2-like protein 10 (Homo sapiens) (UniProt Q9HD36)
# Test: Phenotype converters, Bcl-B/TR3 peptide binding displacement, primary biochemical FP (AID 1240);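 note: 0% = Bcl-B with tracer peptide and DMSO and 100% = tracer peptide lacking Bcl-B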
# Conditions: GST-Bcl-B / FITC-TR3 peptide fluorescence polarization; stronger effect = higher value; compound at 3.75 mg/L
# Chain of UniProt Q9HD36 (Q9HD36 whole entry, looked up): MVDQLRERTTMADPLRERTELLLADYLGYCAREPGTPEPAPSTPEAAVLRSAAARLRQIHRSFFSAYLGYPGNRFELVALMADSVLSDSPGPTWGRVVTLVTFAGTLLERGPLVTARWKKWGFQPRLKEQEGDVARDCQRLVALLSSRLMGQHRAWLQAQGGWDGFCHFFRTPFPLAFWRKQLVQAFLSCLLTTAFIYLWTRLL
row,Structure (SMILES),displacement
1,COc1ccccc1NC(=O)C1=C(C)NC(=S)NC1c1ccc(O)cc1 (stereo not drawn),-7.2%
2,COc1ccc(Br)cc1C(=O)Nc1cccnc1,-4.7%
3,c1cc2c(cc1CNC13CC4CC(CC(C4)C1)C3)OCO2,3.8%
4,COc1ccc(OC)c(NC(=O)c2cccc(F)c2)c1,-1.5%
5,O=C(Cc1ccccc1)Nc1ccc(OC(F)(F)F)cc1,-7.8%
6,O=C(N/N=C/c1cccs1)C(=O)NC1CCCCC1,7.6%
7,O=[N+]([O-])c1ccc2c(c1)S(=O)(=O)NC2=NCCC1=CCCCC1,9.7%
8,Cc1ccccc1-c1nc2cc(Cl)ccc2o1,12.4%
9,COc1ccc(C(=O)N(Cc2ccccc2)c2ccccn2)c(OC)c1,10.9%
10,O=C1c2ccccc2C(=O)C1c1cccc2ccccc12,17.6%
11,COc1cc(OC)c(/C=C2/SC(NC(C)=O)=NC2=O)cc1Br,138%
12,Cc1ccccc1C(=O)Nc1cccc(C(=O)Nc2ccccc2Cl)c1,2.3%
13,Cc1nn(C(=O)Cc2ccccc2)c(C)c1Br,-3.2%
14,Cc1ccc(C(=O)/C=C/c2c[nH]c3ccccc23)cc1,14.9%
15,CS(=O)(=O)N1CCN(C(=O)COc2ccc(Cl)cc2)CC1,-12.3%
16,O=C1C2C3C=CC(CC3)C2C(=O)N1/N=C/c1ccccc1I (stereo not drawn),-1.8%
17,CC(C)(C)NCC(O)COc1ccccc1C(C)(C)C (stereo not drawn),1.1%
18,O=C1C(=O)N(CCCn2ccnc2)C(c2cccc(F)c2)/C1=C(\O)c1ccc(Cl)cc1 (stereo not drawn),-6%
19,O=C(Cc1ccccc1)Nc1c(F)c(F)c(F)c(F)c1F,-10.4%
20,C=COCCn1c(-c2nonc2N)nc2ccccc21,4.8%
21,COc1ccc(N2C(=O)NC(=O)/C(=C\c3ccc(Br)s3)C2=O)cc1,1.1%
22,CCOC(=O)C1=C(C)NC2=C(C(=O)CCC2)C1c1ccc2c(c1)OCO2 (stereo not drawn),4.2%
23,CCOc1ccc2nc(SCC(=O)Nc3ccc4nc(SCC(=O)NC5CC5)sc4c3)sc2c1,0.3%

row,Structure (SMILES),displacement
1,Cc1ccc(/C=C/C(=O)Nc2cccc3ccccc23)o1,-7.3%
2,O=C(Nc1nc(-c2ccccc2)cs1)c1cc2ccccc2o1,11.2%
3,O=C(COc1ccc2ccccc2c1)Nc1ccncc1,6.1%
4,O=C(Nc1ccc(I)cc1)/C(=C\c1cccs1)NC(=O)c1ccccc1,0.6%
5,Cc1ccccc1N1C(=O)NC(=O)/C(=C\c2ccc(OCc3cccc(C(=O)O)c3)cc2)C1=O,13.6%
6,CC/C(C)=N\NC(=O)c1cc(-c2ccccc2)nc2ccccc12,-4.5%
7,COc1ccccc1C(=O)Nc1c(F)c(F)c(F)c(F)c1F,0.6%
8,CC1=C(C(=O)OCCOc2ccccc2)C(c2ccsc2)NC(=O)N1C (stereo not drawn),2.5%
9,CC1(C)CC(=O)C2=C(C1)NC1=C(C(=O)c3ccccc31)C2c1ccc(OCc2ccccc2)cc1 (stereo not drawn),-1%
10,COc1cc(NC(=O)c2ccc([N+](=O)[O-])cc2Cl)ccc1NC(=O)c1ccco1,4.5%
11,O=C(Nc1ccccc1)Nc1nnc(COc2ccc(Br)cc2)s1,-2.9%
12,Cc1ccc(N2NC(=O)/C(=C/c3ccc(Cl)cc3)C2=O)cc1,18.2%
13,CC(NC(=O)CSc1nnc(SCC(=O)NC(C)c2ccccc2)s1)c1ccccc1 (stereo not drawn),-5.8%
14,NS(=O)(=O)c1cccc(NC(=O)c2ccc3c(c2)OCCO3)c1,7.4%
15,CC1(C)CC(=O)C2=C(C1)Nc1ccc3ccccc3c1C2c1cccc([N+](=O)[O-])c1 (stereo not drawn),-0.1%
16,CCOC(=O)CNC(=S)Nc1ccc(F)cc1,-7%
17,Cc1ccc(N2CCN(S(=O)(=O)c3ccc(C)cc3)CC2)cc1,4.5%
18,CCOC(=O)C(C)Oc1ccc2c(=O)c(-c3ccccc3OC)coc2c1 (stereo not drawn),-4.4%
19,O=C(C#Cc1ccccc1)Nc1ccc(Cl)cc1,-2.9%
20,COC(=O)c1cccc(NC(=O)c2ccc[n+]([O-])c2)c1,-0.4%
21,O=C(N/N=C\c1cccc2ccccc12)C1CC(=O)N(c2ccc(F)cc2)C1 (stereo not drawn),-63.4%
22,Oc1c(Br)ccc(Cl)c1C=Nc1cccc2nsnc12,29.6%
23,c1ccc(CSc2ncnc3nc[nH]c23)cc1,13.7%

row,Structure (SMILES),displacement
1,Cc1ccc(-c2nc3ccccc3o2)cc1NC(=O)c1cccc(Cl)c1,17%
2,Cc1ccc(-c2ccc(C=C3C(=O)NC(=O)NC3=O)o2)c([N+](=O)[O-])c1,1.3%
3,CC(C(=O)c1ccc(-c2ccccc2)cc1)[n+]1cccc(C(N)=O)c1 (stereo not drawn),7.5%
4,CCOC(=O)c1c(N)sc(C)c1-c1ccc(F)cc1,-5.5%
5,CC1=CC(=O)C=C/C1=N\OS(=O)(=O)c1ccc(C)cc1,32.6%
6,Cc1cc(Cl)ccc1OC(C)C(=O)NCc1cccnc1 (stereo not drawn),-7.2%
7,COc1cc(NC(=O)c2ccccc2Br)ccc1NC(=O)c1ccco1,2.1%
8,CCN1C(=O)/C(=C\C=C\c2cccc([N+](=O)[O-])c2)SC1=S,-0.2%
9,COc1cc(OC)c(C2Nc3ccccc3NC3=C2C(=O)CC(c2ccccc2)C3)cc1OC (stereo not drawn),9.4%
10,CC1CCc2c(sc(NC(=O)CCCOc3ccc(Cl)cc3Cl)c2C(N)=O)C1 (stereo not drawn),-9%
11,O=C(NCCCO)c1ccccc1C(=O)c1ccccc1,18.9%
12,O=C1CSC2(C(=O)Nc3ccccc32)N1c1cccc(C(F)(F)F)c1 (stereo not drawn),8.4%
13,CCc1ccc(NC(=O)CSCC(=O)Nc2ccccc2)cc1,-16.9%
14,O=S(=O)(NCCc1ccccc1)c1cccs1,1.7%
15,O=C(COc1ccccc1)N1CCN(c2ccccn2)CC1,-4%
16,O=C(Nc1cc2cc(Cl)ccc2oc1=O)c1ccccc1,3.6%
17,Cc1c(C)c2ccc(OCC(=O)N(C)C)c(C)c2oc1=O,10.8%
18,O=C1/C(=C/c2ccc(Br)cc2)SC(=S)N1c1cccc(Br)c1,-2.3%
19,Cc1cnn(-c2cc(N/N=C/c3ccc(Br)cc3)ncn2)c1,-5.8%
20,C=CCn1c(SCC(=O)N2CCOCC2)nc2sc(C)c(C)c2c1=O,-8.5%
21,COC(=O)c1c(NC(=O)CCc2ccccc2)sc2c1CCCC2,2%
22,Cc1c(Cl)cccc1NCN1C(=O)c2ccccc2C1=O,-1%
23,COc1ccc2c(c1)/C(=N/OC(=O)c1cccs1)CCC2,-13.6%

row,Structure (SMILES),displacement
1,CN(C)c1ccc(N=Cc2ccco2)cc1,16.8%
2,CN1CCN(C(=O)CCCN2C(=O)/C(=C/c3ccccc3)SC2=S)CC1,7.5%
3,O=C1C=CC(=NOS(=O)(=O)c2ccccc2)C=C1,20.5%
4,CC(=O)c1ccc(Nc2ccc([N+](=O)[O-])cc2[N+](=O)[O-])cc1,9.2%
5,COc1cc(OC)c(/C=C2\C(=O)NC(=S)N(c3ccc(C)cc3)C2=O)cc1Br,4.7%
6,O=C1NC(=S)S/C1=C/c1cccn1-c1cccc([N+](=O)[O-])c1,15.9%
7,Cc1ccc(NC(=S)NNC(=O)CCn2c3ccccc3c3ccccc32)cc1,-12.3%
8,CN(C)c1ccc(/C=C/C=N/NC(=O)c2ccccc2O)cc1,-33.9%
9,Oc1ccc(Cl)cc1/C=N/Nc1cc(N2CCCC2)nc(N2CCCC2)n1,15.7%
10,Cc1cccc(C(=O)NC2CC(C)(C)NC(C)(C)C2)c1,-9.9%
11,Cc1sc(NC(=O)c2ccccc2[N+](=O)[O-])nc1-c1ccccc1,11.3%
12,COc1cc(C2Nc3ccc4ncccc4c3C3=C2C(=O)CCC3)cc(OC)c1OC (stereo not drawn),3.7%
13,CCOC(=O)c1c(NC(=S)Nc2ccccc2)sc2c1CCN(Cc1ccccc1)C2,-58.9%
14,O=C(CSCc1ccccc1)Nc1ccc2c(c1)C(=O)N(c1ccccc1)C2=O,-17.4%
15,CCC(=O)NC(Nc1ccc(F)c(Cl)c1)(C(F)(F)F)C(F)(F)F,43.4%
16,COc1ccc(NC(=O)c2ccc(I)cc2)c(OC)c1,7.8%
17,COc1ccc(CN2C(=O)NC(=O)/C(=C\C=C\c3ccccc3)C2=O)cc1,13.5%
18,Cc1ccc(NC(=O)COc2ccc(Cl)cc2Cl)c([N+](=O)[O-])c1,14.5%
19,Cc1ccc(/C(N)=N/OC(=O)c2ccc(F)cc2)cc1,4.9%
20,COc1ccc2c(c1)C1C=CCC1C(C(=O)O)N2 (stereo not drawn),150%
21,COCCCNC(=O)/C(=C\c1ccc(-c2ccc(Cl)cc2)o1)NC(=O)c1ccc(C)cc1,8.5%
22,COc1cc(C(=O)N2CCN(C(=O)COc3ccc4ccccc4c3)CC2)cc(OC)c1OC,-20%
23,COc1ccc(CCNC(=O)CC(=O)N/N=C/c2ccc(C(C)C)cc2)cc1OC,-7.4%

row,Structure (SMILES),displacement
1,O=C(c1ccccc1I)n1cccn1,-0.1%
2,O=S(=O)(Nc1ccc(S(=O)(=O)N2CCOCC2)cc1)c1ccc(Br)cc1,-4.9%
3,Cc1ccc(S(=O)(=O)N(C)CCCC(=O)Nc2ccc(F)cc2)cc1,18.4%
4,O=C(CCCC(=O)OCC(F)(F)C(F)F)Nc1ccc(F)cc1F,7.8%
5,O=C(/C=C/c1ccc2c(c1)OCO2)Nc1ccc2ccccc2c1,10%
6,C=CCn1c2ccccc2n2cc(-c3ccc(Br)cc3)nc12,-25.3%
7,Cc1ccc(NC(=O)CSc2nc3c(c(=O)n(C)c(=O)n3C)n2C)cc1C,9.6%
8,Cc1cccnc1NC(=O)Nc1ccc(F)cc1,0.2%
9,COc1cc(OC)cc(C(=O)Nc2ccc(-c3nc4ccccc4s3)c(O)c2)c1,-10.2%
10,O=C(N/N=C/c1ccc(O)cc1)c1cccc(Cl)c1,-4.7%
11,CC(C)Cn1cc(Cl)c(=O)n(CC(C)C)c1=O,-5%
12,CS(=O)(=O)N(CC(N)=O)c1cccc(C(F)(F)F)c1,9.9%
13,CCOC(=O)c1c(C)oc2cc(S(=O)(=O)O)c(O)cc12,7.5%
14,CC(=O)/C(C(N)=NC(=O)c1ccccc1)=C(/O)c1ccccc1,13.2%
15,CCOc1cc(/C=C(\C#N)c2nc3ccc(C)cc3[nH]2)cc(I)c1OC,-4.7%
16,COc1ccc2c(c1)C1C=CCC1C(c1ccc([N+](=O)[O-])cc1)N2 (stereo not drawn),-0.8%
17,Cc1ccoc1C(=O)Nc1ccc2ccccc2c1,7.1%
18,C=CCN1C(=O)/C(=C\c2cn(Cc3ccccc3F)c3ccccc23)SC1=S,3%
19,CC(=O)Oc1cc2ccccc2cc1O,3.9%
20,O=C(Nc1cccc(F)c1)c1sc2ccccc2c1Cl,3.8%
21,COc1ccc(CCNC(=O)/C(=C/c2ccc(Cl)cc2)NC(=O)c2ccc(C)cc2)cc1OC,16%

# Source: PubChem BioAssay AID1240 (Sanford-Burnham Center for Chemical Genomics, 2008)
